Results from PubChem BioAssay AID504333 (National Center for Advancing Translational Sciences (NCATS), 2011).
Where “and” joins values, the source holds several entries; their conditions need not be identical. Equal values may be shown once. Out of some 360,000 compounds screened, about 16,000 (4.4%) were called active. This list was built around the results that the source calls inconclusive (neither active nor inactive); the mix of calls is not that of the screen. Calls come from the whole dose curve; as a rule, active = well fitted inhibition curve with a large enough effect; inconclusive = small, poorly fitted or top-dose-only effect; inactive = no such curve, though single readings can be large or run the other way. Potencies of inconclusive entries are doubtful fits and often do not repeat.
% is set by controls: 0 for no effect and ±100 for the full control effect; potency is the fitted concentration of half-maximal effect; tags give direction and shape of the fitted curve.
Note: nearly all actives have a fitted effect of over 60% in size.

Each molecule was assayed against Bromodomain adjacent to zinc finger domain protein 2B (Homo sapiens) (UniProt Q9UIF8) (assay: qHTS Assay for Inhibitors of BAZ2B). Conditions: AlphaScreen BAZ2B-H3K14Ac peptide displacement; activity change, negative = inhibition: at 114 µM (top of the series) unless noted.
UniProt Q9UIF8, sequence (Q9UIF8 whole entry, looked up, the tested form may be a part): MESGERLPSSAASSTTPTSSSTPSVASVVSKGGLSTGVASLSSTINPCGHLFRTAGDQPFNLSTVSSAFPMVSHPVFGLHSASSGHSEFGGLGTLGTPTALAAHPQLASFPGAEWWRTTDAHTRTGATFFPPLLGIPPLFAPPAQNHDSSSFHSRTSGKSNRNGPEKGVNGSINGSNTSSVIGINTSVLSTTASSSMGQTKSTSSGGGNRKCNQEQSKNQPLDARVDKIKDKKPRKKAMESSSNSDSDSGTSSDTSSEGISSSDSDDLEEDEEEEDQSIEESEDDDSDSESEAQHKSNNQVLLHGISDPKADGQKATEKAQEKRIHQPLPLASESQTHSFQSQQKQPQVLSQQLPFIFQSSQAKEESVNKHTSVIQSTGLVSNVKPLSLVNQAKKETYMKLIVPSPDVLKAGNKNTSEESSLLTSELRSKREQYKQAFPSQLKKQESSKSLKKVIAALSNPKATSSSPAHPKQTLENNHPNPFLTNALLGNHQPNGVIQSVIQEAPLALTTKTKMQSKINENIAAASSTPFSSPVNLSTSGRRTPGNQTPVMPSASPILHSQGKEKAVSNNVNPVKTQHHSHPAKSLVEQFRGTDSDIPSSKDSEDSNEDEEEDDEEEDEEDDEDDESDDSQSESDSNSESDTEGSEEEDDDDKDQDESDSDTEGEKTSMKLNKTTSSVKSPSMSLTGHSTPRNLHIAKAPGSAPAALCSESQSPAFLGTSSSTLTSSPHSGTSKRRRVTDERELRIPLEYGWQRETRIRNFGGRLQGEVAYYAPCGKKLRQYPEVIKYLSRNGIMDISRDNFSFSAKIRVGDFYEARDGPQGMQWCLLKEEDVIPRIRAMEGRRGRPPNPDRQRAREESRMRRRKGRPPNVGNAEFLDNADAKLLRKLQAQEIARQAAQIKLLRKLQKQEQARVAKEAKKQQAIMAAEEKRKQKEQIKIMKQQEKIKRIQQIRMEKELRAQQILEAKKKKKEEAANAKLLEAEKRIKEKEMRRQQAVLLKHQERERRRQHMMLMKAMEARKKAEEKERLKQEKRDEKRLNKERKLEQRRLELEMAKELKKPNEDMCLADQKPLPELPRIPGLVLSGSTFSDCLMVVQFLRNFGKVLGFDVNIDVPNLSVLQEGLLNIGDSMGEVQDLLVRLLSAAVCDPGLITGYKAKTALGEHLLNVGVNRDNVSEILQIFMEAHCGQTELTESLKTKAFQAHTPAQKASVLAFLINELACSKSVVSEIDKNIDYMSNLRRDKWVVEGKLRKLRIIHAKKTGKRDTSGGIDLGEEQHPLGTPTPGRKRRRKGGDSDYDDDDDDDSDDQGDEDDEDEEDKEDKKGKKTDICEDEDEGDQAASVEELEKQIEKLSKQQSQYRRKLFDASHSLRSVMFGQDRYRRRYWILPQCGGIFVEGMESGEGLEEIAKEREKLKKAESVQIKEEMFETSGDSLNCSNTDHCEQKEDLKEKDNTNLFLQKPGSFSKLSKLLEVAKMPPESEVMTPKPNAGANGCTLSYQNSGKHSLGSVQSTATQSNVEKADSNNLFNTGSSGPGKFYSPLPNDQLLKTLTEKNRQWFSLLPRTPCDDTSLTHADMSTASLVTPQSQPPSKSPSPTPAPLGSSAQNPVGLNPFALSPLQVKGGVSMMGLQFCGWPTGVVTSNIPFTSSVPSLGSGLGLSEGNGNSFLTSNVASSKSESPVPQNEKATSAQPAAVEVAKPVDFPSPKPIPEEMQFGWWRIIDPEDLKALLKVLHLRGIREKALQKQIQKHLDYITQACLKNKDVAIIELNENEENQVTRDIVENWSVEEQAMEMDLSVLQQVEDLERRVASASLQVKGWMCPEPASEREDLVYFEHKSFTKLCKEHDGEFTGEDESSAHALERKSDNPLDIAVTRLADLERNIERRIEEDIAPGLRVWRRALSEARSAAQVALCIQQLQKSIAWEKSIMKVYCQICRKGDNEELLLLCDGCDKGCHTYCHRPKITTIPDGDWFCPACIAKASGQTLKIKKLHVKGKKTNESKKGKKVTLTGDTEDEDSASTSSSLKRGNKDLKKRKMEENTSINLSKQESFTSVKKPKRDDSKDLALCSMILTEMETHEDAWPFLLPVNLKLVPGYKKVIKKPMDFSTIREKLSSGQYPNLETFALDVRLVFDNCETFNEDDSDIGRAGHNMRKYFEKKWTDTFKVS
How it was run: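 AlphaScreen displacement: compounds (up to 110uM) incubated 30 min at room temperature with a preformed 50 nM BAZ2B/50 nM biotinylated H3K14Ac peptide complex in PBS pH 7.4 with Tween-20. Donor and acceptor beads at 10 ug/mL final added, 20 min light-protected before reading.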
With CC1CN(C(=O)Nc2ccc3c(c2)OCCO3)CC(C)O1 (stereo not given) the “activity change, negative = inhibition” value was inactive: 0.22%. With CCC1CCCCN1CCCNC(=O)c1cc2c(Cl)nc3ccc(C)cc3c2s1 (stereo not given) the “activity change, negative = inhibition” value was inactive: -26.7%. With CCc1ccccc1N1CC23C=CC(O2)C(C(=O)OCC(C)C)C3C1=O (stereo not given) the “activity change, negative = inhibition” value was inactive: -4.24%. In the case of Cc1[nH]n2c(=O)c(C#N)c(-c3ccccc3)nc2c1-c1ccccc1, the Potency was inconclusive: 89.1 µM [inhibitor, single point]. With CC(=O)Nc1ccc(Nc2c3c4c(cccc4n(C)c2=O)C(=O)c2ccccc2-3)cc1 the Potency was inconclusive: 3.16 µM [inhibitor, full curve]. COC(=O)CC/C(O)=C1\C(=O)CC(C)(C)CC1=NCCc1nc2ccccc2[nH]1 was tested, and the “activity change, negative = inhibition” value was inactive: -17.3%. COc1ccccc1CNC(=O)C1CCN(c2nn3c(=O)cc(C)nc3s2)CC1 was tested, and the “activity change, negative = inhibition” value was inactive: -7.87%. CCC(c1nnnn1CCc1ccccc1)N1CCN(c2ccc(OC)cc2)CC1 (stereo not given) was tested, and the Potency was inconclusive: 39.8 µM [inhibitor, full curve]. With COC(=O)c1ccc(NC(=O)N2CCc3c([nH]c4ccccc34)C2c2ccc(C)cc2)cc1 (stereo not given) the Potency was inconclusive: 22.4 µM [inhibitor, full curve]. With COc1cc(CCC(=O)OCC(=O)Nc2ncc(Cl)cc2Cl)cc(OC)c1OC the Potency was inconclusive: 89.1 µM [inhibitor, single point]. O=C(OCC(=O)N1CCc2ccccc2C1)c1cccs1 was tested, and the “activity change, negative = inhibition” value was inactive: -0.952%. CCn1c(SCC(=O)N/N=C(\C)c2ccncc2)nnc1-c1ccc(C)cc1 was tested, and the “activity change, negative = inhibition” value was inactive: -1.12%. In the case of CC(=O)N1CCc2cc(Br)cc(S(=O)(=O)N3CCC(C(=O)O)CC3)c21, the “activity change, negative = inhibition” value was inactive: -29.7%. Cc1ccc(C)c(N2CCN(C(=O)C(C)n3nc(C)c4sc5ccccc5c4c3=O)CC2)c1 (stereo not given) was tested, and the Potency was inconclusive: 28.2 µM [inhibitor, full curve]. CN1CCc2nc(NC(=O)c3cccc(S(=O)(=O)N4CCc5ccccc54)c3)sc2C1 was tested, and the Potency was inconclusive: 89.1 µM [inhibitor, single point]. COc1cc(NC(=O)CSc2nc(=O)n(CCN3CCOCC3)c3c2CCCC3)cc(OC)c1 was tested, and the “activity change, negative = inhibition” value was inactive: 13.2%. For O=c1ccc(-c2ccc(S(=O)(=O)N3CCCCC3)o2)n[nH]1, the Potency was inconclusive: 3.55 µM [inhibitor, single point]. In the case of CC1(C)CC(=O)C(C(c2ccc(Br)cc2)C2C(=O)CC(C)(C)CC2=O)C(=O)C1, the “activity change, negative = inhibition” value was inactive: 3.79%. In the case of Cn1c(=O)[nH]c(=O)c2c1nc(N/N=C/C(Br)=C/c1ccccc1)n2CCO, the Potency was inconclusive: 79.4 µM [inhibitor, partial curve]. With Cc1ccc(C2=CSC3=NNC4(CCCCC4)NN23)cc1 the Potency was inconclusive: 39.8 µM [inhibitor, partial curve]. With CC(C)NCCOc1cccc(Br)c1 the Potency was inconclusive: 89.1 µM [inhibitor, single point]. For CCN(CC)CCNC(=O)CCCCn1c(=S)[nH]c2c([nH]c3ccc(OC)cc32)c1=O, the Potency was inconclusive: 50.1 µM [inhibitor, partial curve]. For CC(C)OC(=O)C1C(=O)CC(C)(O)C(C(=O)OC(C)C)C1c1ccc(F)cc1 (stereo not given), the Potency was inconclusive: 31.6 µM [inhibitor, single point]. With COc1ccc(N2C(=O)CC(N3CCN(c4ccc(C(=O)c5cccnc5)cc4)CC3)C2=O)cc1 (stereo not given) the “activity change, negative = inhibition” value was inactive: -5.32%. For O=C(Nc1cc([N+](=O)[O-])ccc1Cl)c1ccc2c(c1)OCO2, the “activity change, negative = inhibition” value was inactive: -5.87%. CCCC(=O)Nc1ccc2nn(-c3ccc(CC)cc3)nc2c1 was tested, and the “activity change, negative = inhibition” value was inactive: 1.78%. For Cc1cnc2c(c1SCC(=O)N(C)c1ccccc1)c(=O)n(C)c(=O)n2C, the “activity change, negative = inhibition” value was inactive: -0.738%. CN(C)S(=O)(=O)c1ccc(S(=O)(=O)N(CC(=O)Nc2ccccc2)Cc2ccco2)cc1 was tested, and the “activity change, negative = inhibition” value was inactive: -23%. COc1ccccc1/C=N/NC(=S)NCc1ccco1 was tested, and the Potency was inconclusive: 44.7 µM [inhibitor, partial curve]. In the case of COc1cccc(N2CCN(C(C)C(=O)NC34CC5CC(CC(C5)C3)C4)CC2)c1 (stereo not given), the “activity change, negative = inhibition” value was inactive: -34.9%. For CCCCC(c1nnnn1CCOC)N1CCN(C(=O)c2ccco2)CC1 (stereo not given), the Potency was active: 50.1 µM. For CC(=O)c1ccc(S(=O)(=O)Nc2ccc(C(=O)NCC(c3ccccc3)N(C)C)cc2)cc1 (stereo not given), the Potency was inconclusive: 50.1 µM [inhibitor, partial curve]. In the case of O=C1/C(=C/c2ccco2)SC(=S)N1CC1CCCO1 (stereo not given), the Potency was active: 35.5 µM. For CCC(=O)N1CCN(c2ccc(NC(=O)COc3ccc(C)cc3C)cc2)CC1, the Potency was inconclusive: 56.2 µM [inhibitor, partial curve]. For CCOc1cc(/C=N/NC(N)=O)cc(Br)c1OCC(=O)Nc1cccc2ccccc12, the Potency was inconclusive: 35.5 µM [inhibitor, partial curve]. COc1cc(OC)cc(C(=O)NC(=S)N(Cc2ccccc2)C(C)C)c1 was tested, and the Potency was inconclusive: 12.6 µM [inhibitor, full curve]. In the case of CCOC(=O)c1[nH]c(C)c(CCC(=O)N2CCN(c3cc(Cl)ccc3C)CC2)c1C, the Potency was inconclusive: 79.4 µM [inhibitor, partial curve]. In the case of OCCN1CCN(CCSc2ccccc2)CC1, the “activity change, negative = inhibition” value was inactive: -16.9%. In the case of COc1ccc(/C=N/NC(=O)Cc2csc(Nc3cccc(C(F)(F)F)c3)n2)c(OC)c1, the Potency was inconclusive: 44.7 µM [inhibitor, partial curve]. In the case of CC1(OC(=O)C2CCCC2)C(=O)C=C2C=C(c3ccsc3)N(Cc3ccco3)C=C2C1=O (stereo not given), the Potency was inconclusive: 50.1 µM [inhibitor, partial curve]. For COCc1[nH]nc2c1C(c1ccc(OC)c(OC)c1)C(C#N)=C(N)O2 (stereo not given), the “activity change, negative = inhibition” value was inactive: 12%. For CCOC(=O)c1c(C)[nH]c(C)c1S(=O)(=O)N1CCCC(C(=O)N2CCN(c3ccc(Cl)cc3)CC2)C1 (stereo not given), the Potency was inconclusive: 44.7 µM [inhibitor, partial curve]. With Oc1ccc(C2Nc3cccc4cccc(c34)N2)cc1 the Potency was inconclusive: 31.6 µM [inhibitor, partial curve]. In the case of S=c1[nH]nc(Nc2ccccc2Cl)s1, the Potency was active: 44.7 µM. For Cc1ccc(OCCCn2ccnc2)cc1C, the Potency was inconclusive: 56.2 µM [inhibitor, partial curve]. For COc1ccc(-n2c(CCC(=O)O)ccc2-c2ccccc2)cc1, the Potency was inconclusive: 44.7 µM [inhibitor, partial curve] and inconclusive: 63.1 µM [inhibitor, partial curve, poor fit]. With Cc1cccc(N2C(=O)CC(Sc3nc(C)cc(C)n3)C2=O)c1 (stereo not given) the Potency was inconclusive: 10 µM [inhibitor, single point]. In the case of NC(=O)c1cc(N2C(=O)C=CC2=O)ccc1Cl, the Potency was inconclusive: 89.1 µM [inhibitor, single point]. With CCOC(=O)C1=C(C)OC(N)=C(C#N)C1c1ccc(OC)c(CSc2ccccn2)c1 (stereo not given) the Potency was inconclusive: 89.1 µM [inhibitor, single point]. In the case of Cc1nc(Nc2cccc(O)c2)c2oc3ccccc3c2n1, the Potency was inconclusive: 89.1 µM [inhibitor, single point]. In the case of O=C(NNC(=S)Nc1ccccc1)Nc1ccccc1, the “activity change, negative = inhibition” value was inactive: -23.7%. For Cc1ccc(SCC(=O)OC(C)C(=O)Nc2ccc(S(N)(=O)=O)cc2)cc1C (stereo not given), the “activity change, negative = inhibition” value was inactive: 10.4%. In the case of COc1ccccc1N1CCN(C2CCCN(S(=O)(=O)c3cccc(Cl)c3)C2)CC1 (stereo not given), the Potency was inconclusive: 79.4 µM [inhibitor, partial curve]. CO/N=C/c1ccc(N2CCOCC2)c([N+](=O)[O-])c1 was tested, and the Potency was inconclusive: 70.8 µM [inhibitor, single point]. For O=C(O)c1cc(Br)ccc1NN=C1CCCCC1, the “activity change, negative = inhibition” value was inactive: -35.6%. O=C(OCc1ccccc1F)c1ccc(-c2nnn(Cc3ccccc3)n2)cc1 was tested, and the “activity change, negative = inhibition” value was inactive: 10.6%. COC(=O)c1sc(NC(=S)NC(=O)c2ccccc2C)nc1C was tested, and the “activity change, negative = inhibition” value was inactive: -7.03%. With COc1cc([C@@H]2c3cc4c(cc3[C@@H](O)[C@@H](CO)[C@@H]2CO)OCO4)cc(OC)c1O[Si](C)(C)C(C)(C)C the Potency was inconclusive: 70.8 µM [inhibitor, single point]. With COc1ccc(NC(=S)N(CCCN2CCC(C)CC2)Cc2cccs2)cc1Cl the “activity change, negative = inhibition” value was inactive: -34.5%. COCCOC(=O)C1=C(C)NC(C)=C(C(=O)OC(C)C)C1c1cccc([N+](=O)[O-])c1 (stereo not given) was tested, and the Potency was inconclusive: 39.8 µM [inhibitor, partial curve] and inconclusive: 79.4 µM [inhibitor, single point]. Cc1cc(N2CCN(C)CC2)ccc1NC(=O)c1cccc(S(=O)(=O)N2CCc3ccccc3C2)c1 was tested, and the Potency was inconclusive: 25.1 µM [inhibitor, full curve]. With c1ccc2c(-c3[nH]ncc3CNCCCn3ncc4ccccc43)cccc2c1 the Potency was inconclusive: 20 µM [inhibitor, full curve]. COc1ccc(-c2cc(C(F)(F)F)n3nc(-c4ccc(Cl)cc4)cc3n2)cc1OC was tested, and the “activity change, negative = inhibition” value was inactive: 19%. Oc1[nH]c2ccccc2c1N=Nc1nncc2ccccc12 was tested, and the Potency was inconclusive: 35.5 µM [inhibitor, partial curve]. For CCOc1ccc(NC(=O)CC2C(=O)N(C)C(=S)N2Cc2ccco2)cc1 (stereo not given), the “activity change, negative = inhibition” value was inactive: -9.16%. Cc1ccccc1C(=O)Nc1cc(-c2cc(C(C)(C)C)oc2C)nn1C was tested, and the Potency was inconclusive: 70.8 µM [inhibitor, single point]. For CCOC(=O)c1cc2c(ccn2C)n1CC(=O)N1CCC(C)CC1, the Potency was inconclusive: 89.1 µM [inhibitor, single point]. In the case of CC1(c2ccc3c(c2)OCCCO3)NC(=O)N(CC(=O)NCCc2ccccc2)C1=O (stereo not given), the “activity change, negative = inhibition” value was inactive: 8.5%. C=CCC1=C/C(=C\c2c(N)n3nc(CC(=O)N4CCOCC4)sc3nc2=O)C=C(OC)C1=O was tested, and the Potency was inconclusive: 50.1 µM [inhibitor, partial curve]. With CN(C)c1ccc(N2C(=NC(=O)COc3ccccc3)SC3CS(=O)(=O)CC32)cc1 (stereo not given) the Potency was inconclusive: 44.7 µM [inhibitor, partial curve].
